In the supplement of paper PMC4967469:
A lower IC50 marks a more sensitive line; a fit beyond the top or the lowest dose is shown as a bound at that dose. AUC sums up the same curve from the lowest dose to the 256-fold higher top dose; values near 1 show little effect. The top dose, if marked as inferred, is not printed in the source and was worked back from the curve model.

Assays:
Test in all cases: Viability of human cancer cell lines after 72 h of drug (GDSC screen)
EKB-569 = compound: CCOc1cc2ncc(C#N)c(Nc3ccc(F)c(Cl)c3)c2cc1NC(=O)/C=C/CN(C)C [EKB-569]; conditions: top dose inferred
Description: (§1)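 Human cancer cell lines in 384-well plates, medium with 10% serum, drug for 72 h over a 256-fold dose range (nine 2-fold or five 4-fold steps up to the top dose). Adherent lines were fixed and stained with the nucleic acid dye Syto60, suspension lines read with resazurin; signal relative to control wells, capped at 0 and 100%. One two-parameter sigmoid per drug and line, fitted in a mixed model over all curves with the slope shared within a line.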

NG-25 = compound: CCN1CCN(Cc2ccc(NC(=O)c3ccc(C)c(Oc4ccnc5[nH]ccc45)c3)cc2C(F)(F)F)CC1 [NG-25]; conditions: top dose 10.24 µM; top dose inferred
Description: as §1

PFI-1 = compound: COc1ccccc1S(=O)(=O)Nc1ccc2c(c1)CN(C)C(=O)N2 [PFI-1]; conditions: top dose 10 µM; top dose inferred
Description: as §1

| Cell Line | AUC (EKB-569) | IC50 (EKB-569) [µM] | AUC (NG-25) | IC50 (NG-25) [µM] | AUC (PFI-1) | IC50 (PFI-1) [µM] |
| --- | --- | --- | --- | --- | --- | --- |
| SW620 (large intestine, adherent, top dose 20 µM) | 0.283 | 0.333 |  |  |  |  |
| D-566MG (glioma, adherent) |  |  | 0.874 | 9.71 | 0.8 | 4.77 |
| OVCAR-4 (ovary, adherent, top dose 2.5 µM) | 0.824 | > 2.5 |  |  |  |  |
| LN-229 (glioma, adherent, top dose 2.5 µM) | 0.94 | > 2.5 |  |  |  |  |
| Ramos-2G6-4C10 (Burkitt lymphoma, suspension, top dose 2.5 µM) | 0.929 | > 2.5 |  |  |  |  |
| NCI-H1651 (lung adenocarcinoma, adherent, top dose 2.5 µM) | 0.985 | > 2.5 |  |  |  |  |
| NCI-H358 (lung adenocarcinoma, adherent, top dose 2.5 µM) | 0.497 | 0.153 |  |  |  |  |
| LNCaP-Clone-FGC (prostate, adherent, top dose 2.5 µM) | 0.861 | > 2.5 |  |  |  |  |
| MFE-296 (endometrium, adherent, top dose 2.5 µM) | 0.983 | > 2.5 |  |  |  |  |
| NCI-H1395 (lung adenocarcinoma, adherent, top dose 2.5 µM) | 0.982 | > 2.5 |  |  |  |  |
| CHSA0108 (chondrosarcoma, adherent, top dose 2.5 µM) | 0.983 | > 2.5 |  |  |  |  |
| MOLM-13 (acute myeloid leukaemia, suspension, top dose 2.5 µM) | 0.546 | 0.207 |  |  |  |  |
| NCI-H441 (lung adenocarcinoma, adherent, top dose 2.5 µM) | 0.962 | > 2.5 |  |  |  |  |
| HCC1937 (breast, adherent, top dose 2.5 µM) | 0.883 | > 2.5 |  |  |  |  |
| CCF-STTG1 (glioma, adherent, top dose 2.5 µM) | 0.967 | > 2.5 |  |  |  |  |
| Hs633T (fibrosarcoma, adherent, top dose 2.5 µM) | 0.907 | 2.32 |  |  |  |  |
| TGBC11TKB (stomach, adherent, top dose 2.5 µM) | 0.991 | > 2.5 |  |  |  |  |
| CP50-MEL-B (melanoma, adherent, top dose 2.5 µM) | 0.982 | > 2.5 |  |  |  |  |
| COLO-800 (melanoma, adherent, top dose 2.5 µM) | 0.959 | > 2.5 |  |  |  |  |
| A673 (rhabdomyosarcoma, adherent, top dose 2.5 µM) | 0.98 | > 2.5 |  |  |  |  |
| HT-3 (cervix, adherent, top dose 2.5 µM) | 0.929 | > 2.5 |  |  |  |  |
| PE/CA-PJ15 (head and neck, adherent, top dose 2.5 µM) | 0.836 | 1.86 |  |  |  |  |
| PCI-38 (head and neck, adherent, top dose 2.5 µM) | 0.954 | > 2.5 |  |  |  |  |

| Cell Line | AUC (EKB-569) | IC50 (EKB-569) [µM] | AUC (NG-25) | IC50 (NG-25) [µM] | AUC (PFI-1) | IC50 (PFI-1) [µM] |
| --- | --- | --- | --- | --- | --- | --- |
| NCI-H1299 (large cell lung carcinoma, adherent, top dose 2.5 µM) | 0.928 | > 2.5 |  |  |  |  |
| TE-9 (oesophagus, adherent, top dose 2.5 µM) | 0.978 | > 2.5 |  |  |  |  |
| MOLP-8 (myeloma, suspension, top dose 2.5 µM) | 0.796 | 1.12 |  |  |  |  |
| RPMI-7951 (melanoma, adherent, top dose 2.5 µM) | 0.881 | 2.49 |  |  |  |  |
| DMS-114 (small cell lung carcinoma, adherent, top dose 2.5 µM) | 0.972 | > 2.5 |  |  |  |  |
| MZ7-mel (melanoma, adherent, top dose 2.5 µM) | 0.952 | > 2.5 |  |  |  |  |
| LB771-HNC (head and neck, adherent, top dose 2.5 µM) | 0.913 | > 2.5 |  |  |  |  |
| NB1 (neuroblastoma, semi-adherent, top dose 2.5 µM) | 0.931 | > 2.5 |  |  |  |  |
| ES6 (Ewing sarcoma, adherent, top dose 2.5 µM) | 0.937 | > 2.5 |  |  |  |  |
| Hs746T (stomach, adherent) |  |  | 0.895 | > 10.2 | 0.83 | 9.52 |
| OC-314 (ovary, adherent) |  |  | 0.849 | 6.06 | 0.759 | 3.04 |
| PEO1 (ovary, adherent) |  |  | 0.855 | 8.69 | 0.84 | 7.31 |
| ESO51 (oesophagus, semi-adherent) |  |  | 0.871 | > 10.2 | 0.912 | > 10 |
| UWB1.289 (ovary, adherent) |  |  | 0.852 | > 10.2 | 0.898 | > 10 |
| OV-7 (ovary, adherent) |  |  | 0.936 | > 10.2 | 0.901 | > 10 |
| OVCA433 (ovary, adherent) |  |  | 0.932 | > 10.2 | 0.882 | > 10 |
| OVK-18 (ovary, adherent) |  |  | 0.973 | > 10.2 | 0.892 | > 10 |
| ESO26 (oesophagus, adherent) |  |  | 0.725 | 2.66 | 0.866 | 8.08 |
| JHOS-2 (ovary, adherent) |  |  | 0.808 | 6.42 | 0.843 | 8.88 |
| SNU-1040 (large intestine, adherent) |  |  | 0.836 | > 10.2 | 0.938 | > 10 |
| NCI-H630 (large intestine, adherent) |  |  | 0.945 | > 10.2 | 0.839 | 7.58 |
| SNU-81 (large intestine, adherent) |  |  | 0.975 | > 10.2 | 0.968 | > 10 |
| D-423MG (glioma, adherent) |  |  | 0.793 | 5.86 | 0.877 | > 10 |

| Cell Line | AUC (EKB-569) | IC50 (EKB-569) [µM] | AUC (NG-25) | IC50 (NG-25) [µM] | AUC (PFI-1) | IC50 (PFI-1) [µM] |
| --- | --- | --- | --- | --- | --- | --- |
| CADO-ES1 (Ewing sarcoma, suspension) |  |  | 0.793 | 4.76 | 0.959 | > 10 |
| K-562 (chronic myeloid leukaemia, suspension) |  |  | 0.097 | < 0.04 |  |  |
| DOV13 (ovary, adherent) |  |  | 0.929 | > 10.2 | 0.803 | 5.9 |
| OV-17R (ovary, adherent) |  |  | 0.781 | 6.14 | 0.601 | 1.32 |
| OVCA420 (ovary, adherent) |  |  | 0.894 | > 10.2 | 0.71 | 3.03 |
| SNU-407 (large intestine, adherent) |  |  | 0.88 | > 10.2 | 0.852 | 9.83 |
| JHOS-3 (ovary, adherent) |  |  | 0.945 | > 10.2 | 0.94 | > 10 |
| RCC-MF (kidney, adherent) |  |  | 0.718 | 3.24 | 0.838 | 9.89 |
| KMS-11 (myeloma, suspension) |  |  | 0.761 | 3.15 | 0.786 | 3.66 |
| OACM5-1 (oesophagus, semi-adherent) |  |  | 0.433 | 0.411 | 0.87 | > 10 |
| COR-L321 (lung, suspension) |  |  | 0.95 | > 10.2 | 0.95 | > 10 |
| OACp4C (oesophagus, adherent) |  |  | 0.787 | 5.43 | 0.904 | > 10 |
| SNU-175 (large intestine, suspension) |  |  | 0.84 | 6.42 |  |  |
| RCC-JF (kidney, adherent) |  |  | 0.857 | 10.1 | 0.942 | > 10 |
| SK-MG-1 (glioma, adherent) |  |  | 0.897 | > 10.2 | 0.87 | 9.53 |
| SNU-C5 (large intestine, adherent) |  |  | 0.958 | > 10.2 | 0.883 | > 10 |
| SW1116 (large intestine, adherent) |  |  | 0.985 | > 10.2 | 0.925 | > 10 |
| EMC-BAC-2 (lung adenocarcinoma, adherent) |  |  | 0.9 | > 10.2 | 0.783 | 5.07 |
| SU-DHL-10 (B-cell lymphoma, suspension) |  |  | 0.892 | 6.02 | 0.718 | 2.1 |
| SNU-61 (large intestine, adherent) |  |  | 0.955 | > 10.2 | 0.958 | > 10 |
| QGP-1 (pancreas, adherent) |  |  | 0.897 | > 10.2 | 0.924 | > 10 |
| YH-13 (glioma, adherent) |  |  | 0.908 | > 10.2 | 0.819 | 6.1 |
| RCC-ER (kidney, adherent) |  |  | 0.985 | > 10.2 | 0.945 | > 10 |

| Cell Line | AUC (EKB-569) | IC50 (EKB-569) [µM] | AUC (NG-25) | IC50 (NG-25) [µM] | AUC (PFI-1) | IC50 (PFI-1) [µM] |
| --- | --- | --- | --- | --- | --- | --- |
| FLO-1 (oesophagus, adherent) |  |  | 0.763 | 5.35 | 0.821 | 9.65 |
| NCC021 (kidney, adherent) |  |  | 0.812 | 6.64 | 0.963 | > 10 |
| EMC-BAC-1 (lung adenocarcinoma, adherent) |  |  | 0.86 | > 10.2 | 0.914 | > 10 |
| OV-56 (ovary, adherent) |  |  | 0.945 | > 10.2 | 0.958 | > 10 |
| Hey (ovary, adherent) |  |  | 0.866 | 8.25 | 0.779 | 3.85 |
| RCC-AB (kidney, adherent) |  |  | 0.809 | 7.42 | 0.876 | > 10 |
| CHP-134 (neuroblastoma, suspension) |  |  | 0.822 | 8.19 |  |  |
| KNS-62 (lung squamous cell carcinoma, adherent) |  |  |  |  | 0.721 | 3.56 |
| COR-L303 (small cell lung carcinoma, suspension) |  |  | 0.893 | > 10.2 |  |  |
| NCC010 (kidney, adherent) |  |  |  |  | 0.974 | > 10 |
| KYAE-1 (oesophagus, suspension) |  |  | 0.823 | 6.87 | 0.899 | > 10 |
| COR-L311 (small cell lung carcinoma, suspension) |  |  | 0.861 | 9.78 |  |  |
| JEKO-1 (B-cell lymphoma, suspension) |  |  |  |  | 0.859 | 7.75 |
| RCC-FG2 (kidney, adherent) |  |  | 0.841 | 10.2 | 0.932 | > 10 |
| YMB-1-E (breast, adherent) |  |  | 0.906 | > 10.2 |  |  |
| SK-MEL-5 (melanoma, adherent) |  |  | 0.983 | > 10.2 | 0.851 | > 10 |
| TC-YIK (cervix, suspension) |  |  |  |  | 0.652 | 1.55 |
| CML-T1 (chronic myeloid leukaemia, suspension) |  |  |  |  | 0.948 | > 10 |
| RCC-JW (kidney, adherent) |  |  | 0.91 | > 10.2 | 0.9 | > 10 |
| SK-GT-4 (oesophagus, adherent) |  |  | 0.909 | > 10.2 | 0.801 | 6.31 |
| TE-4 (oesophagus, adherent) |  |  | 0.986 | > 10.2 | 0.97 | > 10 |
